Experimental data published in patent EP4711371A1 (priority 2023, dated 2024).

B1: NECTIN4-ADC-1: "Ab refers to the PADCEV antibody" (conjugate, chains of the INN, looked up)
heavy: EVQLVESGGGLVQPGGSLRLSCAASGFTFSSYNMNWVRQAPGKGLEWVSYISSSSSTIYYADSVKGRFTISRDNAKNSLSLQMNSLRDEDTAVYYCARAYYYGMDVWGQGTTVTVSSASTKGPSVFPLAPSSKSTSGGTAALGCLVKDYFPEPVTVSWNSGALTSGVHTFPAVLQSSGLYSLSSVVTVPSSSLGTQTYICNVNHKPSNTKVDKRV[human IgG1 Fc not printed]
light: DIQMTQSPSSVSASVGDRVTITCRASQGISGWLAWYQQKPGKAPKFLIYAASTLQSGVPSRFSGSGSGTDFTLTISSLQPEDFATYYCQQANSFPPTFGGGTKVEIKRTVAAPSVFIFPPSDEQLKSGTASVVCLLNNFYPREAKVQWKVDNALQSGNSQESVTEQDSKDSTYSLSSTLTLSKADYEKHKVYACEVTHQGLSSPVTKSFNRGEC
modifications: drug-linker conjugate
B2: NECTIN4-ADC-2: "Ab refers to the PADCEV antibody" (conjugate, chains of the INN, looked up)
heavy: B1 heavy
light: B1 light
modifications: drug-linker conjugate
B3: NECTIN4-ADC-3: "Ab refers to the PADCEV antibody" (conjugate, chains of the INN, looked up)
heavy: B1 heavy
light: B1 light
modifications: drug-linker conjugate
B4: NECTIN4-ADC-4: "Ab refers to the PADCEV antibody" (conjugate, chains of the INN, looked up)
heavy: B1 heavy
light: B1 light
modifications: drug-linker conjugate

How the values were obtained:
MDA-MB-453 = test: In vitro proliferation inhibition assay of ligand-drug conjugates targeting NECTIN-4, Test Example 4; format: cell-based, human; conditions: NECTIN4 ADC, 3 days, CTG
Procedure: The cell lines used in the experiment were human breast cancer T47D and MDA-MB-453 cell lines that highly expressed NECTIN4. Cell suspensions were prepared in fresh cell culture medium containing 10% FBS and then diluted to a density of 5×10^4 cells/mL, 10×10^4 cells/mL. 100 µL per well was added to a 96 well cell culture plate (Thermo catalog number: 167425) and cultured at 37 °C with 5% carbon dioxide for 24 hours.
The ADC samples were prepared at 10 µM stock solutions in PBS as the initial concentration, and a five-fold gradient dilution was performed using PBS, for a total of nine concentrations. 50 µL of culture medium was aspirated from each well, and 50 µL of the above ADC solution was added, resulting in an initial ADC concentration of 5 µM in each well and a final volume of 100 µL per well. The cells were cultured at 37°C in 5% CO2 for 3 days. 100 µL of CTG (Celltiter-Glo® Luminescent Cell Viability Assay, Promega, Catalog No. G7573) was added per well. The cells were mixed on a decolorizing shaker at room temperature for 30 minutes, incubated for 10 minutes, and chemiluminescence was read on a microplate reader (TECAN, Spark). Data were analyzed using Graphpad Prism 5 software. Table 17 IC50 values of the ligand-drug conjugates of the present invention for inhibition of cancer cell proliferation in vitro

[1] = system: Human breast cancer cells MDA-MB-453; test: Antitumor efficacy in the MDA-MB-453 CDX model, Test Example 8; format: in vivo, mice; conditions: 5mg/kg single dose, tail vein; for TGI: day 32; for Tumor volume (On the 32st day of administration): PBS 746.80
Text: Test Example 8 Antitumor efficacy of the NECTIN4 ligand-drug conjugate of the present invention in the MDA-MB-453CDX model • 1. […] Tumor growth curves were generated using GraphPad Prism 8.0.2.2.263 software.
Where V0 and VT are the tumor volumes at the start and end of the experiment, respectively. CRTV and TRTV are the relative tumor volumes of the blank control group (PBS) and the experimental group at the end of the experiment, respectively.

Molecule	IC50 (MDA-MB-453) [nM]	TGI [1] [%]	Tumor volume (On the 32st day of administration) [1] [mm^3]
B1	60.3	59.99	298.85
B2	9.2	99.66	2.49
B3	38.8	–	–
B4	~200	–	–
